In the supplement of paper PMC11417369:
± gives the standard deviation of the averaged measurements. This is one part of the list.

Each sequence was assayed on PfAP2-LT AP2 domain (GST-tagged) (assay: gcPBM binding intensity (ln(normalized median fluorescence intensity)); higher = stronger DNA binding).
How it was run: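 Alexa488 anti-GST antibody, scanned at 488 nm, detected GST-tagged P. falciparum DNA-binding domains that had been expressed in E. coli and incubated for 1 h on an Agilent 4 × 180k array. The array carried primer-extended double-stranded 36-bp intergenic genomic probes and negative controls. Binding intensity is the highest Masliner-normalised natural-log median intensity across replicate spots of either orientation of each probe.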

| Sequence | gcPBM binding intensity (ln) |
| --- | --- |
| AGCTATATAAATAATACATGCATTGTTCAGGTATTT [TGCATGCA_site964] | 8.88 ± 0.4 |
| ATTTATAATATTCAAGTGCATATATATTTTTTACTT | 8.85 ± 0.52 |
| TAAAGAAATTCTTCATGTACTTATTATTTCTCTTTT [XGTACX_site6817] | 8.6 ± 0.57 |
| GTTATACAAAATAATACATGCATGTCCTACATATAT [TGCATGCA_site320] | 9.35 ± 0.59 |
| TATGGAATAAATTTATCCATACATCTTATAACATAT [XGTACX_negctrl_site500] | 8.54 ± 0.35 |
| TAGTTCCTCAAAAATTTCCTTTGTCATTTTATTCAC [GTGCAC_negctrl_site20] | 8.62 ± 0.53 |
| TACATAAATTAATAGTCACACACGTATTTTTTATAT [CACACA_site8806] | 8.99 ± 0.42 |
| TACATATTGCACAAATAAAAAAGAACAAAAAAAAAA [CACACA_negctrl_site1200] | 8.63 ± 0.49 |
| GAATTTCGATATATGTGTACGCATTTGTATTATAGG [XGTACX_site6332] | 9.03 ± 0.35 |
| ATAATATTTCTTACCTTTGGATGTTCTAATTTTTTT [CACACA_negctrl_site1317] | 8.86 ± 0.49 |
| ATATATATATATATATGTACATATATTCGATTATTA [XGTACX_site557] | 9.695 ± 0.035 |
| AAAAATAACATATAAACACACATATATATATATATA [CACACA_site3802] | 9.825 ± 0.0071 |
| TACTTTATATTATATATATATATATATATATATATA [CACACA_negctrl_site1765] | 9.2 ± 0.16 |
| TATATAAAATAATAATGTACTCATTAAAATTATAGA [XGTACX_site4507] | 8.44 ± 0.5 |
| ATGTATCCAATAGGAGTGCATAATTCTATTAACACC | 8.91 ± 0.42 |
| AAAGAAAAAAAAAAAAAAAAAAAAAAAATTATACAT [CACACA_negctrl_site7] | 8.45 ± 0.64 |
| AATTAAATATTATAAACACACATATATATTATTTTT [CACACA_site865] | 8.71 ± 0.36 |
| AAACGAACATATAAATGTACATATATATACATATAT [XGTACX_site8086] | 8.95 ± 0.4 |
| TATGTATTAAATTTTACACACATGATTCTCTATATA [CACACA_site2298] | 9.13 ± 0.41 |
| ATTGTAAATATAGAAGTGCAAAAGGGTATGAAATGA | 9.02 ± 0.49 |
| TACAAAAAAAATGTATTTAGGACATATATATGTTTA [XGTACX_negctrl_site455] | 8.48 ± 0.43 |
| TACATAAAATATATCACACATATAATATATATATAT [CACACA_site5834] | 8.86 ± 0.35 |

| Sequence | gcPBM binding intensity (ln) |
| --- | --- |
| AAAAAAAAAAAAAAATATAAATATATATATATATAT [GTGCAC_negctrl_site28] | 9.1 ± 0.12 |
| AGTGTAATTTTCCACTGTACTTTTCTTGTATATAAT [XGTACX_site4201] | 8.86 ± 0.4 |
| ATATATATTAATATTTGTACATAAAATTATTTCAAT [XGTACX_site5364] | 8.55 ± 0.39 |
| AAAGTAACACACTAATATTTTAACAAATAATATATA [GTGCAC_negctrl_site132] | 8.79 ± 0.48 |
| AATACATTTATGAGCTGTACACATTTATTTGAGCTA [XGTACX_site7695] | 8.74 ± 0.3 |
| ACAAAATATACAAAATGTACAAAATATACAAAATGT [XGTACX_site6467] | 9.12 ± 0.43 |
| TTATATCATTTTCCTGCACACATAAATTTATATAAT [CACACA_site8257] | 9.01 ± 0.37 |
| CATATGTATTTATTCACACATATATATATATATATA [CACACA_site4207] | 9.74 ± 0.12 |
| TATACAGATAAATACACACACACATATATATATATA [CACACA_site4845] | 10.3 ± 0.25 |
| TTATTCTAAAAGTGTTTGCACTTTTATAATCATATA [GTGCAC_site9929] | 8.43 ± 0.55 |
| TACCTTTCTTATTATTGAAAAGGAATATATAAATAG [CACACA_negctrl_site272] | 8.18 ± 0.28 |
| ATACAAAAAATCACATGTACATATTCTTAAATGGTA [XGTACX_site8502] | 8.77 ± 0.46 |
| AATAATAATTTGAATACACACAATAATATATATATA [CACACA_site2059] | 8.9 ± 0.38 |
| ATATATAAATATATATGTACACACATATACATGTTG [XGTACX_site6653] | 9.2 ± 0.38 |
| AATTATTCTATATATTGTACATGTTTGTTTTTTTTT [XGTACX_site3130] | 9.03 ± 0.46 |
| TGTTTAATCACATGTTTGCACTTTCCTTTTGTAAAT [GTGCAC_site9893] | 9.06 ± 0.47 |
| TGATTCTGTCATGGTGCACACCAGAACCATTATAAA [CACACA_site1965] | 8.65 ± 0.24 |
| TCTTAAAATCGGAAATGAAATAAAGTTTACAATATG [TGCATGCA_negctrl_site553] | 8.47 ± 0.55 |
| AAAACAAACAGACACACACACATATATATATATATA [CACACA_site3655] | 10.4 ± 0.24 |
| AATGAATAAATAAACACACACACATATATAAATATG [CACACA_site6160] | 9.78 ± 0.19 |
| ATGTTTAATTTTTTTTTGTCCCTATAGAAGTGTCAA [CACACA_negctrl_site1103] | 8.57 ± 0.52 |
| TTTGAGTGCACATACACACAGACATACATTTAAATA [CACACA_site3403] | 9.07 ± 0.3 |

| Sequence | gcPBM binding intensity (ln) |
| --- | --- |
| ATAACCTAATAATACACACACATGAATATATAGAAT [CACACA_site963] | 9.48 ± 0.29 |
| ATATAAATATGTTCTGCACACAAATAAGTGTTTGAA [CACACA_site9291] | 9.01 ± 0.35 |
| TTTAAAATTTTTTTTTTTTTTTTTTTTTTTTTTTAT [TGCATGCA_negctrl_site213] | 8.04 ± 0.49 |
| AGGTTATAAATAAATACACACATACAAAAATATGAC [CACACA_site4773] | 9.23 ± 0.38 |
| AATCTGATCTTTTAAAGTACACAAAAAAAAAAAAAA [XGTACX_site115] | 8.26 ± 0.47 |
| AAAAAAAAAAAAAAAAGTACGTATCAAAGCATCAAA [XGTACX_site880] | 8.79 ± 0.5 |
| GTTTAACTGTTTTATACACACAATGTATACAATAAA [CACACA_site2959] | 8.91 ± 0.38 |
| CATATATATATATGTACACACATTAATAAAAAAAAA [CACACA_site3230] | 8.95 ± 0.39 |
| AATGAACACCTAAAATGTACGTACAAATATATTTTA [XGTACX_site7067] | 8.98 ± 0.36 |
| TTCTTATATATATACACACACAAAATATCTACAATG [CACACA_site736] | 9.27 ± 0.39 |
| CCAAAATACATTAAACGTACATGTCCTAATAAGATA [XGTACX_site21] | 8.79 ± 0.38 |
| TTGTTTTTATAAATATTATTACAATGAAAAAAAAAA [TGCATGCA_negctrl_site185] | 8.11 ± 0.58 |
| TAATATATATTATTATGTACATATATTGATTCCTTG [XGTACX_site6830] | 8.85 ± 0.47 |
| TATTTATTAATATGTACACACATCAACCATATTAAC [CACACA_site7001] | 9.04 ± 0.29 |
| ATATAATCCTTTCAAACACACAAAATATAATTAATA [CACACA_site1829] | 8.77 ± 0.42 |
| ATGATGGAATATTCTACACACAATTAATAAACAAAC [CACACA_site1045] | 9.21 ± 0.49 |
| CTATATATTTTTCATTGTACACAAATTAAAGAAAAA [XGTACX_site8385] | 8.19 ± 0.36 |
| TTTTTTTATAAATTCACACAAAATATAATATTAAAA [CACACA_site4766] | 8.05 ± 0.39 |
| AATGTCATCATATTCATATATATTTATTTCTTTTTG [GTGCAC_negctrl_site500] | 8.77 ± 0.44 |
| GGTTATAACCCACATGCACACGTAAATAAATATTAT [CACACA_site5992] | 9.13 ± 0.4 |
| ATAAATAATAAGGTTACAACAAACACACAAAGGAAT [XGTACX_negctrl_site611] | 9.29 ± 0.35 |
| TAAAAAAAAAAGTATACACACTTCTTAATGTCAACA [CACACA_site4818] | 8.59 ± 0.54 |

| Sequence | gcPBM binding intensity (ln) |
| --- | --- |
| TGTCCAATTTATTGTGCACACCTCAAAAGTGGGTAA [CACACA_site3826] | 8.88 ± 0.4 |
| GATATATAGGTATTTACACACAATGTGAGATCTATA [CACACA_site7575] | 9.04 ± 0.38 |
| AAAGACTTTTTATGAGCACACACATATATTATGGAG [CACACA_site8254] | 9.01 ± 0.35 |
| AGATAAAATAAATACACACACATAAATACGTACAAA [CACACA_site4739] | 9.6 ± 0.38 |
| TTTCTATAATATATATGTACATATATAATATGTCGT [XGTACX_site3676] | 8.95 ± 0.43 |
| ATGATTATACAAAATATACACACGTGGACACAAATA [CACACA_site8304] | 9.33 ± 0.44 |
| TGATAATAAGCATACACACACACACTAAAAAAAAAA [CACACA_site6478] | 9.94 ± 0.38 |
| TACCTATATACATACACACACATATAACCAATGTAG [CACACA_site7096] | 9.36 ± 0.28 |
| AGAAGATTAAAAATTGCACACAAAAATATATTTTCT [CACACA_site8359] | 8.88 ± 0.4 |
| TAATAAATAAAAACATGTACATATATACATATATGT [XGTACX_site485] | 8.76 ± 0.36 |
| TAATCATTTTTAAATTGTACAATTTATATAATAAGT [XGTACX_site6081] | 8.48 ± 0.48 |
| TTGATATACTATGACACATGCAAATAAAACATTATA [TGCATGCA_site535] | 8.78 ± 0.25 |
| TTGTATTGTATATGCACACATAGAACACTTTTTTTT [CACACA_site4133] | 8.89 ± 0.4 |
| TAAATTTTGTTTAGCACACACACATACATACATACA [CACACA_site3155] | 9.66 ± 0.39 |
| TATTTTTTAAGTGAACATTTGTTATTATATTCTTAT [GTGCAC_negctrl_site172] | 8.63 ± 0.38 |
| TATATCTGTATCATTACACACATGTATACTTATTTG [CACACA_site6134] | 9.35 ± 0.38 |
| TATGGGGAACTATAATGTACGTATTCCTCATATATA [XGTACX_site338] | 8.89 ± 0.38 |
| GATGATACACAGGTGTTGCACTTAAATGCAGTTCTT [GTGCAC_site9627] | 8.88 ± 0.41 |
| ATTAAAATAGAAAAAAAAAAAAAAAAAAAAAAAAAA [CACACA_negctrl_site1117] | 8.04 ± 0.36 |
| TTTTCAAAATGTTGTACACACAAAAAAAAAAAAAAA [CACACA_site1550] | 8.71 ± 0.45 |
| ATGTATATGTTTTGTTGTACAAGTATTTTATATCTT [XGTACX_site3588] | 9 ± 0.42 |
| TTTCAATTTATCAGTGTGCACAAAAATAAAATAAAA | 8.93 ± 0.65 |
